Out of some 310,000 compounds screened, about 2,200 (0.71%) showed an effect of 50% or more. The effect is printed as a negative number. The list shows a part of the results.
Target: human ether-à-go-go-related gene (hERG) potassium channel (human, UniProt Q12809)
Test: primary screen, population patch clamp on CHO cells stably expressing hERG

Chain of human ether-à-go-go-related gene (hERG) potassium channel (Q12809 whole entry, looked up): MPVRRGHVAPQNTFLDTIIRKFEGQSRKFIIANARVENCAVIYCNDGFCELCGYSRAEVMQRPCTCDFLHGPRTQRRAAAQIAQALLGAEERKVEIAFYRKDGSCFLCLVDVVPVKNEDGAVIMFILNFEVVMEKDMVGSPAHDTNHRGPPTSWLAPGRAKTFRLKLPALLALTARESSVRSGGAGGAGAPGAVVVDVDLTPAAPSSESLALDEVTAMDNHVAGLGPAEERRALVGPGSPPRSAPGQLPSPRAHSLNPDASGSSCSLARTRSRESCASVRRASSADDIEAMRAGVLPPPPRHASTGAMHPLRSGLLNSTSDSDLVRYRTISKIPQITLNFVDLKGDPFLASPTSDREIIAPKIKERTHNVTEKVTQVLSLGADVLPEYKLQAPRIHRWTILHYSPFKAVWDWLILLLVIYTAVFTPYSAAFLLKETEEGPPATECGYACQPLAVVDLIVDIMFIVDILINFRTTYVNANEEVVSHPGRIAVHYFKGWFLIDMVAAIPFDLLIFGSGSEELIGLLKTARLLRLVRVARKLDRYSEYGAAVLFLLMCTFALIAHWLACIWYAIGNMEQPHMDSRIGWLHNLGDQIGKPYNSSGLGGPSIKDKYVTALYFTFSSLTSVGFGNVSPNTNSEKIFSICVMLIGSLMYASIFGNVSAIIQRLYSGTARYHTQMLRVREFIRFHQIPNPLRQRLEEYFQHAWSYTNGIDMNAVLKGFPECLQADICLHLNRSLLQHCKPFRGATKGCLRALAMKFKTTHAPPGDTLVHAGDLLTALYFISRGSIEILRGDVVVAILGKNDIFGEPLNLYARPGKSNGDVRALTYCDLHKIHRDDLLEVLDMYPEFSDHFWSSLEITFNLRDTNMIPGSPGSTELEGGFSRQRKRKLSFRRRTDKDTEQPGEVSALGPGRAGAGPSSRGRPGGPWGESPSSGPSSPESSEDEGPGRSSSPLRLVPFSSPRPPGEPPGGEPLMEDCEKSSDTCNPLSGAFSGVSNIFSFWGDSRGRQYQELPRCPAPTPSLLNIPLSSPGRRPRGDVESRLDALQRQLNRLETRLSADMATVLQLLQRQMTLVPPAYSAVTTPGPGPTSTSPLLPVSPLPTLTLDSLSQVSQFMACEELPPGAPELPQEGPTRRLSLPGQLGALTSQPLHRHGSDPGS

SMILES | hERG current change (%, negative = inhibition) at 1uM [%]
COc1cc(/C=N/NC(=O)c2cc(C34CC5CC(CC(C5)C3)C4)[nH]n2)ccc1O | -7.2
COC[C@]12CN(C)C3C4[C@H](OC)[C@H]1C3([C@@H](OC)C[C@H]2O)[C@@H]1C[C@@]2(O)[C@H](OC(=O)c3ccccc3)[C@@H]1[C@]4(OC(C)=O)[C@@H](O)[C@@H]2OC | 4.99
CC(=O)Nc1ccc(NC(=O)CCNC(=O)c2ccccc2Cl)cc1 | 6.77
CCS(=O)(=O)N1CCC(C(=O)NCCCN2CCCCCC2)CC1 | -4.37
c1ccc(CNn2nnnc2-c2ccccc2)cc1 | 2.07
Cc1cc(C)c(OCCCON2C(=O)CCC2=O)c(Br)c1 | 7.85
COC(=O)c1noc(-c2ccc(C)cc2)n1 | 0.393
O=C(CNC(=O)c1ccccc1F)OCC(=O)N1CCCc2ccccc21 | -4.47
COc1ccc(S(=O)(=O)NC(CC(=O)N2CCC3(CC2)OCCO3)c2ccco2)cc1 (centres unmarked) | 10.6
C=CCN1C(=O)/C(=C\c2ccc(OC(=O)c3ccco3)c(OC)c2)SC1=S | 13.4
COc1ccc(N2CCN(c3ncnc4c3nnn4Cc3ccccc3Cl)CC2)cc1 | 8.15
COc1cc(C(=O)Nc2ccc(Br)cc2C(=O)c2ccccc2Cl)cc(OC)c1OC | 10.5
CCN(CC)C(=O)Cn1cc(S(=O)(=O)CC(=O)Nc2cc(OC)ccc2OC)c2ccccc21 | 7.07
CCOc1ccc2nc(NCCNC(=O)C(C)C)c(C)cc2c1 | -27.3
CC(C)c1ccc(NC(=O)c2cccc(NC3=NC4CS(=O)(=O)CC4S3)c2)cc1 (centres unmarked) | 2.08
CCOc1ccc(CCNC(=O)Cn2cccc2C(=O)c2ccccc2C)cc1OCC | 5.18
N#Cc1cccc(CSc2nnc(CCCO)n2-c2ccccc2)c1 | 10.6
c1ccc2c(c1)Nc1ccncc1S2 | 9.27
CC(NC(=O)CN1C(=O)COc2ccccc21)c1ccccc1 (centres unmarked) | 1.01
O=C1[C@@H]2Cc3c([nH]c4ccccc34)CN2C(=O)CN1CCO | 14.2
CC(=O)N1c2ccc(S(=O)(=O)N3CCC(C(=O)N4CC(C)CC(C)C4)CC3)cc2CC1C (centres unmarked) | 16.4
CN(C)c1cccc(N(C)C)c1CNC(=O)C(C)(C)C | 11

SMILES | hERG current change (%, negative = inhibition) at 1uM [%]
CC(C)/C(=N\NC(=O)Nc1ccccc1)c1ccccc1 | 7.52
Cl.O=C(c1ccc(Cl)cc1)C(CN1CCCCC1)c1ccccc1 (centres unmarked) | 4.97
Cc1ccc(CCN2CC(C(=O)NCCN(C)C)CC2=O)cc1 (centres unmarked) | 16.5
CN(C)c1nc(Nc2ccc(F)cc2)nc(Oc2ccc(F)cc2)n1 | 10.1
Cc1ccc(NC(=O)Nc2cccnc2)cc1NC(=O)Nc1cccnc1 | 13.1
C=CCN(CC=C)S(=O)(=O)c1ccc(C(=O)Nc2nc3c(s2)CCc2ccccc2-3)cc1 | 1.31
COC(=O)c1cc(-c2ccc(NC(C)=O)cc2)nc2ccccc12 | 11.6
CC(=O)NCCn1c(SCC(=O)NCc2ccco2)nc2ccccc2c1=O | -1.64
CCC1CCCCN1C1Sc2ccc(C(=O)OC)cc2NC1=O (centres unmarked) | -2.48
COc1ccccc1CC(=O)Nc1ccc(-c2nnc(-c3ccco3)o2)cc1 | 3.41
Cc1ccc(NC(=O)CNc2ccccc2CN(C)C2CCCCC2)cc1 | 0.499
O=C(CC1N=C2c3ccccc3N=C(SCc3ccc(F)cc3)N2C1=O)NCc1ccco1 (centres unmarked) | -43.6
Cc1cc(F)ccc1S(=O)(=O)Nc1ncnc2sc3c(c12)CCC3 | 12.8
COc1cc(F)cc(-c2ccc3c(c2)c(-c2cccs2)c(-c2cc(OC)cc(OC)c2)n3C)c1 | 12.5
CCOc1ccccc1C1c2[nH]c3ccccc3c2C[C@H]2C(=O)N(C3CC3)CC(=O)N12 (some centres unmarked) | 10.5
O=C(c1ccccc1)N(Cc1ccco1)C1CCS(=O)(=O)C1 (centres unmarked) | 14.8
COc1ccc(-c2cc(C(=O)NCc3ccc(Cl)cc3)no2)cc1OC | 12.1
O=C(NCCc1c[nH]c2ccccc12)C(F)(F)C(F)F | 6.27
COc1ccc(/C=C(\NC(=O)c2ccc([N+](=O)[O-])cc2)C(=O)N2CCOCC2)cc1 | -54.9
O=c1[nH]nc(-c2ccccc2)cc1-c1ccccc1 | 8.32
O=C(Nc1ccc(S(=O)(=O)NCC2CCCO2)cc1)c1ccc(F)cc1 (centres unmarked) | 13
O=C(CCSc1ccc(Cl)cc1)NC1CCCC1 | 16.3

SMILES | hERG current change (%, negative = inhibition) at 1uM [%]
CCCn1nc(C(=O)NCCN2CCOCC2)c2ccccc2c1=O | 12.9
Cc1occc1C(=O)NCc1nc(-c2ccc(Cl)cc2)no1 | 16.3
CN(C(=S)NC(=O)CCCOc1ccc(Cl)cc1Cl)c1ccccc1 | 8.68
CC(C)O.CCCC1(CCC)NC(=O)N(CC(=O)N2CCN(C(=O)c3ccco3)CC2)C1=O | 7
COC(=O)c1cc(NC(=O)CC2SC(=Nc3ccccc3)N(CCc3c[nH]c4ccccc34)C2=O)cc(C(=O)OC)c1 (centres unmarked) | 14.6
COc1ccc(/C=N/NC(=O)c2cc(C)oc2C)cc1OCc1ccccc1 | 11.8
CN(CC1CCCO1)S(=O)(=O)c1ccc(C(=O)Nc2nnc(-c3ccccc3)o2)cc1 (centres unmarked) | 12.7
COC(=O)CCC(C)N1CCC(Oc2ccc(C(=O)N3CCCC3)cc2)CC1 (centres unmarked) | 4.49
CCCn1cc(SCC(=O)NCC2CCCO2)c2ccccc21 (centres unmarked) | 13.7
COc1ccc(/C=C/C(=O)NCC(=O)N/N=C/c2cc(Br)ccc2OC)cc1 | 5.79
Cc1cnc(NC(=O)CSc2nc3ccccc3c(=O)[nH]2)s1 | 13.8
O=C(O)C(=O)O.O=[N+]([O-])c1cccc(CN2CCN(Cc3ccco3)CC2)c1 | 10.8
Cc1nn(CC(=O)O)c(C)c1N | 12.4
O=C(Nc1cccc(NC(=O)c2ccc(-c3cccc(Br)c3)o2)c1)c1ccco1 | 6.32
CCN(CC)CCOC(=O)c1c(C)n(C)c2ccc(OC)cc12.Cl | 4.14
CCCOc1ccccc1NC(=O)Nc1ccccc1Cl | 7.87
O=C(Nc1nnc(-c2ccco2)o1)c1cccc(Cl)c1 | 12.8
CC(=O)N/C(=C\c1cccs1)C(=O)O | 12.8
COc1cc(CNc2cc(C)ccc2C)cc(OC)c1OC | 8.88
COc1ccccc1N1C(=O)CC(Sc2ccccc2N)C1=O (centres unmarked) | 5.02
COc1ccc(NC(=O)Nc2c(C)n(C)n(-c3ccccc3)c2=O)c(OC)c1 | 16.2
COc1ccccc1CNS(=O)(=O)c1ccc(S(=O)(=O)NC2CC2)cc1 | 9.68

SMILES | hERG current change (%, negative = inhibition) at 1uM [%]
O=C(C1CCCO1)N1N=C(c2ccc(Br)cc2)CC1c1ccco1 (centres unmarked) | 2.44
CC(=O)Nc1cccc(C(=O)OCC(=O)Nc2nnc(-c3ccccc3)o2)c1 | -2.38
C[C@H](NC(=O)c1nc[nH]c1C(=O)NC1CCN(C(=O)OC(C)(C)C)CC1)C(=O)OCc1ccccc1 | 0.735
COc1ccc(/C=C/C(=O)C23CC4CC(CC(C4)C2)C3)cc1CN1CCOCC1 | 5.62
O=C(Nn1cnnc1)c1ccccc1F | 20.7
O=C(NCC1CCCN1S(=O)(=O)c1cccs1)C(=O)Nc1ccccc1 (centres unmarked) | 19.1
COc1ccc(CC(=O)Nc2cc(Cl)ccc2N2CCCC2)cc1 | 14.7
O=C(c1ccc(Cl)cc1Cl)C1(n2cncn2)Oc2ccccc2C1O (centres unmarked) | -10.6
CCCN1CCN(CCCNC(=O)C2CCCN(c3nc4ccc(OCC)cc4s3)C2)CC1 (centres unmarked) | -28.9
C=CCOC(=O)C1=C(C)NC(SCC(=O)Nc2nccs2)=C(C#N)C1c1cccs1 (centres unmarked) | 4.19
Cc1[nH]n(-c2ccccc2)c(=O)c1C=Nc1ccc(S(=O)(=O)NC(N)=O)cc1 | 5.09
O=C(c1cccc(S(=O)(=O)N2CCN(c3ccccc3)CC2)c1)N1CCCC(C(F)(F)F)C1 (centres unmarked) | 4.09
COCC(C)n1c(SCC(=O)NNC(=O)c2ccc(F)cc2)nc2ccccc2c1=O (centres unmarked) | -10.4
Cc1nc(C)c(C(=O)Nc2ccccc2)s1 | 5.97
Brc1ccccc1-c1nnc(-c2cccnc2)o1 | 9.86
CC(=O)c1cccc(NC(=S)NNC(=O)c2ccco2)c1 | 16.5
CO/N=C/C(C#N)=C/c1cc(C(=O)c2ccc(F)cc2)cn1C | 16.2
CC(C)(C)OC(=O)N1CCC[C@H]1c1nnc(SCC(=O)Nc2ccc(Br)cc2)o1 | 4.94
Cn1c(CSc2nc3ccccc3s2)nnc1SCC(=O)NCCCN1CCOCC1 | 12
O=C(Nc1ccccc1)Nc1ccccc1-n1ccnc1 | 0.781
